According to PubChem BioAssay AID1508642 (National Center for Advancing Translational Sciences (NCATS), 2021):
The campaign covered roughly 43,000 compounds. About 200 (0.47%) were called active. About 12% were inconclusive and are not listed. The call rests on the fitted dose curve; in most records, active means well fitted cell-killing curve with a large enough effect; inconclusive means small, poorly fitted or top-dose-only effect, or effect the other way; inactive means flat fitted curve, though single readings scatter. The list shows a part of the results.

Assay: Cell viability qHTS assay in S16 Pmp22-F2sN cells; further: nearly all actives have a fitted effect of over 65% in size
Settings: S16 Pmp22-F2sN Schwann cells (luciferase reporters placed in the Pmp22 gene) viability, CellTiter-Glo, 24 h; series mostly up to 57.5 µM; activity change, negative = cytotoxicity: at the top concentration
Outline: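 Luminescence from CellTiter-Glo, read by CCD camera after a 15 min room-temperature incubation, served as the viability signal. Reporter Schwann cells (S16 Pmp22-F2sN) had been treated with pin-transferred compounds for 24 h at 37C.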
On the % scale 0 is the no-effect control and ±100 the full control effect; potency means the concentration at half of the fitted maximal effect.

Compound	activity change, negative = cytotoxicity	Potency
CCOC(=O)N1CCC(NC(=O)c2c(C)nn(-c3cccc(C)c3)c2-n2cccc2)CC1	inactive: 6.28%	–
Cc1ccc2c(=O)c(C(=O)c3cccc(Cl)c3)cn(CC(=O)NC3CCCCC3)c2n1	inactive: -0.307%	–
COC(=O)c1ccccc1NC(=O)c1nc(-c2ccc(C)cc2)n2c1CCCCC2	inactive: 1.38%	–
CC(NC(=O)Cn1c(=O)oc2cc(S(=O)(=O)N3CCCCCC3)ccc21)c1ccccc1 (stereo unspecified)	inactive: 11.5%	–
CC(NC(=O)c1cc2c(=O)n3ccccc3nc2n(C(C)C)c1=N)c1ccccc1 (stereo unspecified)	inactive: 2.97%	–
COCCNC(=O)Cn1nc(-c2ccccc2)c2ccccc2c1=O	inactive: -1.3%	–
COc1cc(OC)c(C2CC(=O)Nc3ccc4ccccc4c32)cc1OC (stereo unspecified)	inactive: 19.2%	–
CC(=O)N1c2ccccc2C(=O)C1N1CCN(c2cccc(Cl)c2)CC1 (stereo unspecified)	inactive: 10.2%	–
Cc1cccc(OC(=O)CSc2nnc(-c3ccc4c(c3)OCO4)o2)c1C	inactive: 0.0037%	–
Cc1ccc(C2=NN(CC(=O)NCCc3ccccc3)C(=O)CC2)cc1	inactive: 10.6%	–
COc1cccc(Cn2c(=O)n(CC3CCC(C(=O)NC(C)C)CC3)c(=O)c3sccc32)c1 (stereo unspecified)	inactive: -0.283%	–
Cc1cn(C)c(CC(=O)NCc2ccc(Cl)cc2)c1C(=O)O	inactive: -5.15%	–
Cc1ccc(CCNS(=O)(=O)c2ccc3c(c2)C(C(C)C)C(=O)N3)cc1 (stereo unspecified)	inactive: -17.1%	–
COc1cc(NC(=O)CN2C(=O)CCc3cc(Br)ccc32)cc(OC)c1OC	inactive: -20.8%	–
Cc1cccc(NC(=O)CN2C(=O)C3(SCC(=O)N3c3ccccc3)c3ccccc32)c1 (stereo unspecified)	inactive: 1.48%	–
Cc1ccc(Cn2c(C(=O)O)c(CNCc3ccc(C)o3)c3ccc(C)cc32)cc1	inactive: 26.8%	–
Cc1ccc(S(=O)(=O)N2CCN(Cc3ccccc3Cl)CC2)cc1	inactive: -0.295%	–
CCOC(=O)c1c(NC(=O)c2cc(=O)c3cc(C)ccc3o2)sc2c1CCCC2	inactive: -16.6%	–
Cc1ccc2oc(C(=O)Nc3sc4c(c3C(=O)NCC3CCCO3)CCC4)cc(=O)c2c1 (stereo unspecified)	inactive: -3.39%	–
CCN(CC)c1ccc(NC(=O)CN2CCN(CC(=O)Nc3ccc(Cl)cc3)CC2)cc1	inactive: -0.188%	–
COc1ccc(NC(=O)c2cccc(N3CCCS3(=O)=O)c2)c(OC)c1	inactive: 0.0607%	–
O=C(NCCC1=CCCCC1)c1ccc2c(c1)sc1nc(-c3ccc(F)cc3)cn12	inactive: 3.77%	–
CC(=O)Nc1ccccc1-c1nc2ccccc2n(C(C)C(=O)Nc2ccccc2C(F)(F)F)c1=O (stereo unspecified)	inactive: -2.6%	–
COc1ccc(-c2c(C)c3ccc(O)c(CN4CCC(C)CC4)c3oc2=O)cc1OC	inactive: 3.71%	–

Compound	activity change, negative = cytotoxicity	Potency
COc1cccc(CNC(=O)c2ccc(-c3nc(CSc4ccccc4)c(C)o3)cc2)c1	inactive: -1.41%	–
COc1cc2c(c(OC)c1)C(c1cccc(F)c1F)CC(=O)N2 (stereo unspecified)	inactive: 24.2%	–
CN1CCN(c2ncnc3c2cnn3-c2cccc(Cl)c2)CC1	inactive: 7.22%	–
COc1cc(OC)c(OC)cc1/C=C/c1nc2cc3ccccc3cc2c(=O)n1-c1ccccc1Br	inactive: -0.708%	–
Cc1ccc(CNC(=O)c2cc(=O)c3cc(C)ccc3o2)cc1	inactive: -0.322%	–
Cc1ccc(NC(=O)C2CCN(S(=O)(=O)c3cccc4nsnc34)CC2)cc1F	inactive: 0.742%	–
CCCNC(=O)c1ccc2c(c1)nc1n2CCCCC1	inactive: -3.43%	–
COc1cccc(CNC(=O)Cn2ncn3nc(-c4cccs4)cc3c2=O)c1	inactive: -21.1%	–
Oc1c(C(Nc2ccccn2)c2ccccc2F)ccc2cccnc12 (stereo unspecified)	–	active: 2 µM
COc1ccc(Cn2ccc3nc(C)c(C(=O)Nc4cccc(SC)c4)cc3c2=O)cc1	inactive: 16.1%	–
CCN1CCN(c2oc(-c3ccc(COc4ccccc4C)o3)nc2C#N)CC1	inactive: -20.9%	–
CC(=O)c1ccc(NS(=O)(=O)c2ccc3c(c2)NC(=O)CCS3)cc1	inactive: 13.4%	–
COc1ccc(NC(=O)C(=O)NCCc2csc3nc(-c4ccccc4F)nn23)cc1OC	inactive: 6.22%	–
CCN(CC)C(=O)c1c(-c2ccccc2)c(-c2ccccc2)nn(CC)c1=O	inactive: -0.101%	–
COc1ccccc1N1CCN(C(=O)CN2C(=O)COc3ccc(S(=O)(=O)N4CCOCC4)cc32)CC1	inactive: 4.22%	–
COc1ccc(CCC(=O)NC2CC(=O)N(c3ccc(F)cc3)C2)cc1 (stereo unspecified)	inactive: 0.216%	–
CCN(Cc1nc(-c2ccc(OC)c(OC)c2)no1)S(=O)(=O)c1ccc(OC)cc1	inactive: -14.5%	–
COc1ccc(-c2nc3sc(CCNC(=O)c4ccc(Br)o4)c(C)n3n2)cc1	inactive: -22.2%	–
Cc1cccc(S(=O)(=O)c2cn(Cc3ccccc3)c3cc(N4CCCCC4)c(F)cc3c2=O)c1	inactive: -6.67%	–
CC(C)(C)OC(=O)N1CCC(c2c(C(=O)NC3CCCCC3)cnn2-c2ccc(F)cc2F)CC1	inactive: 0.394%	–
COc1cc(CNC(=O)c2cnc(SC)nc2-c2ccccc2)cc(OC)c1OC	inactive: 3.41%	–
O=C(CSc1nc(=O)n(Cc2ccccn2)c2c1CCC2)Nc1ccccc1	inactive: 4.21%	–
N#Cc1c(-c2ccccc2)cc(-c2ccccc2)nc1SCC(O)CS(=O)(=O)Cc1ccc(Cl)cc1 (stereo unspecified)	inactive: 0.809%	–
Cc1cccc(C)c1NC(=O)Cn1nnc(S(=O)(=O)c2ccccc2)c1N	inactive: -16.5%	–

Compound	activity change, negative = cytotoxicity	Potency
O=C1CN(C(=O)c2ccc(S(=O)(=O)N3CCCC3)cc2)C(c2ccccc2)c2cc(F)ccc2N1 (stereo unspecified)	inactive: 0.604%	–
Cc1c(C(=O)NCCN(C)C)oc2c1-c1nn(Cc3cccc(Cl)c3)cc1CC2	inactive: 1.53%	–
Cc1nc(-c2ccc(F)cc2)sc1CCNC(=O)Cc1ccc(F)cc1	inactive: -10.7%	–
CCOC(=O)c1cc2c(=O)n3ccccc3nc2n(C(C)C)c1=NC(=O)C(C)(C)Oc1ccc(Cl)cc1	inactive: 11.9%	–
CN(C)c1ccc(Nc2ncnc3c2c(-c2ccccc2)cn3-c2cccc(Cl)c2)cc1	inactive: 0.956%	–
CCn1cc(/C=C(\NC(=O)c2cc(OC)c(OC)c(OC)c2)C(=O)NCCCn2ccnc2)c2ccccc21	inactive: 15.1%	–
Cc1cc(NC(=O)Cc2ccccc2)cc(-c2nc3ccccc3o2)c1O	inactive: -3.45%	–
Cc1cccc(N2CCN(C(=O)c3cc(S(=O)(=O)N4CCC(C)CC4)cn3C)CC2)c1C	inactive: -1.65%	–
O=C(Nc1ccccc1F)c1nc(S(=O)(=O)Cc2ccccc2F)ncc1Cl	–	active: 6.31 µM
CCN(C(=O)c1noc2c1COc1ccc(C)cc1-2)c1cccc(C)c1	inactive: 16.7%	–
Clc1cccc(-n2ncc3c(NC4CCCCC4)ncnc32)c1	inactive: -5.89%	–
CCOc1ccc(-c2nnc(SCC(=O)NC3CCCC3)nc2-c2ccc(OCC)c(OC)c2)cc1OC	inactive: 10.2%	–
CCOc1ccc(CCNC(=O)C2CCN(c3ncnc4c3nc3n4CCCCC3)CC2)cc1	inactive: 1.83%	–
CCCNC(=O)c1ccc2c(c1)N=C(C)c1c(C)ccc(C)c1S2	inactive: 3.28%	–
O=C(NCc1ccc(Cl)cc1)C(=O)NCC(c1cccs1)S(=O)(=O)c1ccc(Cl)cc1 (stereo unspecified)	inactive: -1.14%	–
CCN(CC)c1nn2c(=O)c(C(=O)NCc3ccc(OC)cc3OC)cnc2s1	inactive: 4.86%	–
Clc1ccccc1N1CCN(c2ncnc3c2c(-c2ccccc2)cn3-c2ccccc2)CC1	inactive: -6.32%	–
Cc1ccccc1NC(=O)CCC(=O)N1CCSc2ccccc21	inactive: 0.601%	–
Cc1ccc(S(=O)(=O)N(CC(=O)Nc2ccc(C(C)C)cc2)Cc2ccccc2)cc1	inactive: -16.2%	–
CC(=O)N1c2ccc(S(=O)(=O)NCC3CCC(C(=O)NC(C)(C)C)CC3)cc2CC1C (stereo unspecified)	inactive: -0.977%	–
O=C(NCC(c1cccs1)S(=O)(=O)c1cccs1)c1ccccc1F (stereo unspecified)	inactive: -0.656%	–
COc1ccccc1CNC(=O)c1ccccc1NC(=O)c1nsc2ccccc12	inactive: -1.64%	–
Cc1ccc(-n2nc3ccc(NC(=O)c4oc5ccccc5c4C)cc3n2)cc1	inactive: 25.6%	–
Cc1ccc(NC(=O)c2c(NC(=O)c3ccco3)sc3c2CCC(C(C)(C)C)C3)c(C)c1 (stereo unspecified)	inactive: -10.6%	–

Compound	activity change, negative = cytotoxicity	Potency
COc1cc(OC)c(NC(=O)c2nnn(Cc3ccc(C)cc3)c2N)cc1Cl	inactive: 10.6%	–
Cc1ccc(NC(=O)CN2C(=O)CSc3ccc(S(=O)(=O)N4CCCC4)cc32)cc1F	inactive: -4.24%	–
Cc1ccccc1Cn1cc(CCC(=O)NC(C)c2ccccc2)c2ccccc21 (stereo unspecified)	inactive: 0.401%	–
Cc1cc(C)c2oc(-c3cccc(NC(=O)c4ccc(Br)o4)c3)nc2c1	inactive: -3.1%	–
CCC(C)c1ccc(OCC(=O)Nc2cccc(-c3nc4ncccc4o3)c2)cc1 (stereo unspecified)	inactive: -2.59%	–
O=C(Cc1ccc(F)cc1)NC1CC(=O)N(c2ccc3c(c2)OCCO3)C1 (stereo unspecified)	inactive: -2.24%	–
COc1cccc(-c2cn3c(n2)sc2cc(C(=O)NC4CCCCCC4)ccc23)c1	inactive: 4.52%	–
COc1ccc(Br)cc1CNC(=O)Cn1c(=O)c2cccn2c2ccc(F)cc21	inactive: 3.61%	–
CC1=C(c2ccc(C)cc2)S(=O)(=O)N(Cc2ccc(C(=O)NCc3cccc(C)c3)cc2)C1=O	inactive: -6.73%	–
Cc1c(Cl)cccc1NC(=O)N1CCC(CN2CCCC2)CC1	inactive: 3.47%	–
COc1cccc(-n2nnc3c(sc4nc(C)cc(C)c43)c2=O)c1	inactive: -2.22%	–
COc1ccc(N2CCN(C(=O)c3cnc(N4CCCC4)nc3C)CC2)cc1	inactive: 4.38%	–
COc1ccc(-c2cc3nc(-c4ccccc4)cc(C(F)(F)F)n3n2)cc1	inactive: 3.35%	–
COc1ccc(CCNC(=O)Cc2c(C)c3c(cc(C)c4c(C)coc43)oc2=O)cc1	inactive: 12.8%	–
O=C(Nc1sc2c(c1C(=O)Nc1ccccc1Cl)CCCC2)c1ccccc1F	inactive: 7.87%	–
COc1ccc(CCNC(=O)CN(c2ccccc2OC)S(=O)(=O)c2ccc(C)cc2)cc1	inactive: -21.4%	–
COC(=O)c1c(NC(=O)c2cc(=O)c3ccc(C)c(C)c3o2)sc2c1CCCC2	inactive: -0.544%	–
O=C(NCc1ccccc1Br)C1CCCN(C(=O)N2CCOc3ccccc32)C1 (stereo unspecified)	inactive: 2.78%	–
COCCCNC(=O)Cn1c(=O)n(Cc2ccc(C(=O)NCc3ccc(C)cc3)cc2)c(=O)c2ccccc21	inactive: 18.8%	–
Cc1ccc(NC(=O)CSc2nc(C)c(Cc3ccccc3)c(=O)[nH]2)cc1	inactive: 9.39%	–
COC(=O)c1ccc(NC(=O)CSc2nc3ccc(OC)cc3[nH]2)cc1	inactive: 2.72%	–
Cc1ccc(CCNC(=O)c2ccc3c(=O)n(-c4ccc(C)cc4)c(=O)[nH]c3c2)cc1	inactive: -1.04%	–
CCOc1cccc2sc(NC(=O)c3ccc(S(=O)(=O)N4CCCc5ccccc54)cc3)nc12	inactive: -9.95%	–
Cc1ccccc1S(=O)Cc1ccc(C(=O)NC2CCCCCC2)o1 (stereo unspecified)	inactive: 6.73%	–
